# The other results are listed elsewhere or left out.
# T1: UNK ZnF1-3 (human, UniProt Q9C0B0 31-174)
# T1 sequence: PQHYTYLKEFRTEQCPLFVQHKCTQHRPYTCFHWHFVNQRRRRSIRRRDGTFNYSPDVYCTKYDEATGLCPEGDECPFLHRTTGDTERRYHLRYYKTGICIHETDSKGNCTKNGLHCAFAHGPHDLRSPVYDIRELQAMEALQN
# B1: 13578621_13578741_1134_3pUTR_ENSMUSG00000042742_ENSMUST00000045235|mouse|control|control (ssRNA)
# RNA: GGGAGUUCUACAGUCCGACGAUCGAAGUGUUAGAAUACUCCUCCUCUUCUACACUGUUGAAAUCUUGAGGAAUAUACAACAUCCCUGGAUAGUUCCUGCUAACCAAGUCACUUGUGGUUUUAAGGGAGGUUUUUCUAAAAGCCCAACAGAGGAUUGAGCAUCA
# B2: 91870421_91871422_641_CDS_ENSG00000001631_ENST00000394505|human|control|control (ssRNA)
# RNA: GGGAGUUCUACAGUCCGACGAUCUCUCUUUUUUUUCUGUCCUUCAAUGGGAACUUCAUGCAACAAAAUUUCAUAUGACUUAGCUCUGUAUUCCCGAGAAUUGAGACUGGCAGUAUUCUUUGGACGAAUAACAGCAACAUAUGCCAACAGAGGAUUGAGCAUCA
# B3: chr7:109302599:109302600:-_ENSMUSG00000063550_ENSMUST00000070165|mus_mus|motif|central (ssRNA)
# RNA: GGGAGUUCUACAGUCCGACGAUCAGAGUCAUCUUCUCCAUCCUGCUGAUUGUUCUCAUCAACAGGUUUGCUCAGGAAGCGGAAUCUUUCUCCAUUUUCUGGAUACUCAGAGGGUGAAGCUAGAUCUUCUGAAUCAUGAUUAACCAACAGAGGAUUGAGCAUCA
# B4: chr2:198365819:198365820:+_ENSG00000115541_ENST00000409468|hu_mus|motif|central (ssRNA)
# RNA: GGGAGUUCUACAGUCCGACGAUCAGUUUCGGCAGCACUCCUUUCAACCAAUACUCUGUCAAAGAGCGGAAGAAACUUCCGGAAAGCUUGUCCAGCCAUGACUCUCGCCUUCGCCGCCACCACCGCAGCUCCGGACUCUGAACUCAACAGAGGAUUGAGCAUCA
# B5: chr9:100852126:100852127:+_ENSMUSG00000037286_ENSMUST00000129269|mus_mus|motif|central (ssRNA)
# RNA: GGGAGUUCUACAGUCCGACGAUCGCCAUGCUCAGACUCAGGUUCCUGAAUCUGCUCUCCCAUGGGACGGCUGUUUUCUCGGAGUACCGUGGAGGUGAGCUGUGGGGUUGGCAAGGGUCCAGGAGUCUGAAUCAUCGUGUCAGUCAACAGAGGAUUGAGCAUCA
# B6: chr9:15470827:15470828:-_ENSG00000164985_ENST00000397519|hu_mus|motif|central (ssRNA)
# RNA: GGGAGUUCUACAGUCCGACGAUCGUCAAGGGCACACCUGCCCCAGUUUUCAAGAACGUAAUAGCUACUCCAGUUUAAUACCGGGCUUCAAAACAAAAUGAUUUUCAUAUUCUCUAAGUGAGAUAAUGUACAGUCGCCGUCUUCCAACAGAGGAUUGAGCAUCA
# B7: chr19:16212804:16212805:+_ENSG00000167460_ENST00000300933|hu_mus|hu_hu_hu_mus_False|88_88 (ssRNA)
# RNA: GGGAGUUCUACAGUCCGACGAUCAACAAUUCUGGAGUGAAGGAAAGCAUCAAGGAUGAACAGCAUUAAAGCUCAGUCAGAAGGCACAUGGGCAACAAUGAUCACCCCAGCAUUCUCGCUUGGAAUGCUUAAAGACAAUCUGUUCAACAGAGGAUUGAGCAUCA
# B8: chr2:126738436:126738437:-_ENSMUSG00000027366_ENSMUST00000028844|mus_hu|motif|central (ssRNA)
# RNA: GGGAGUUCUACAGUCCGACGAUCAGGCAUGAGGCACACACUCAUUACUGAGAAAUAGAUCAGUUUUGGUACUCUGAUGACGGCUGGCAACUUUUCAUUAUUUCCAAAAGGUCCAGCUGCGAGUUCAACCAUGAUACUCUCACCCAACAGAGGAUUGAGCAUCA
# B9: 120834331_120834451_773_CDS_ENSMUSG00000025162_ENSMUST00000018274|mouse|control|control (ssRNA)
# RNA: GGGAGUUCUACAGUCCGACGAUCCUUGUUCUCUCGAUAGGGGAUAUGCUGGUGGGUGCGUGCAUCCCGAUACUUCUUGGCCAGCCCAAAGUCAAUGAUGUAGACCAGGUUGCCUUUCUUUCCCAGCCCCAUGAGGAAGUUAUCCAACAGAGGAUUGAGCAUCA
# B10: chr1:157179356:157179357:-_ENSMUSG00000026469_ENSMUST00000027741|perfect_dup|motif|central (ssRNA)
# RNA: GGGAGUUCUACAGUCCGACGAUCCAGGAUUAGACUGAGGUAGAACUCACUGAAGGCCAGUUUAAGGUCUUUAAUAUUUCGGUGUUGGACACGUUCCUCAUGGGACAAGUGGAAGACUGGCUUUCUGCGUUGUCGCAGCGUAGUCAACAGAGGAUUGAGCAUCA
# B11: chr14:66974463:66974464:+_ENSMUSG00000022044_ENSMUST00000074523|mus_hu|FALSE|FALSE (ssRNA)
# RNA: GGGAGUUCUACAGUCCGACGAUCUUGUAGGACGACUUAUUCAGGGGAUCGGCCAGGAAGCAGGAGCAGAACAAGGACACCAGCGGGAGCUCCUUCAUCUUCUCUUUGUAGGCAGCAAGGGUCAUGUUUCUGGGAUCUGGUGGCCAACAGAGGAUUGAGCAUCA
# B12: 94333749_94369099_1498_3pUTR_ENSMUSG00000074785_ENSMUST00000099337|mouse|control|control (ssRNA)
# RNA: GGGAGUUCUACAGUCCGACGAUCUGGUUCUCUCUCGGAGGCUUCGAAGUAUCUGAAUUUUCGGGCAUUUUUUAGGUCCUGAUGAAAUAUCCAGCCAGUUUUCAAAGCUCCCAGCAUGUGUGCAAUCCCCUUGAAAAGUGCACCCAACAGAGGAUUGAGCAUCA
# B13: chr8:74858975:74858976:-_ENSG00000154582_ENST00000284811|hu_mus|hu_hu_hu_mus_True|8_38 (ssRNA)
# RNA: GGGAGUUCUACAGUCCGACGAUCGACCUUGUAGGUAAAAUACAUGCACACUUUUGAUAGCACAUGUGAGGGGAUCUCUCUAAAAUUGACCUCGUUGGUUUCGUUCUCAGCAAACUGACCUGGACCACUCAACAUGGCCUUUAUCAACAGAGGAUUGAGCAUCA
# B14: chr11:102150864:102150865:-_ENSMUSG00000059995_ENSMUST00000137387|mus_mus|motif|central (ssRNA)
# RNA: GGGAGUUCUACAGUCCGACGAUCAUUAGUACAGAACCCCCCCACACACAGACACAUGAUAGGAUACAGGGUGGACGACACCGGGCCAGGGUGGGGAGGAUGGGAAUUGAAACCCACACAGCCUGCUGUUAGAGGGAGGGAGUGCAACAGAGGAUUGAGCAUCA
# B15: chr11:86532819:86532820:-_ENSMUSG00000047126_ENSMUST00000103186|perfect_dup|FALSE|FALSE (ssRNA)
# RNA: GGGAGUUCUACAGUCCGACGAUCCAUGGCUCUGAGGCAUUCUAGGGAAUCUUCAACUGAUAAGGACCCAAAGUAAUUCACUAACCACUCAGGGUUAAGAAGAUGGGUAUGAACAACUGCACGUUUUAUGUCAUAUAAAUCGGUCAACAGAGGAUUGAGCAUCA
# B16: chr2:117085994:117085995:+_ENSMUSG00000027349_ENSMUST00000028825|mus_hu|motif|central (ssRNA)
# RNA: GGGAGUUCUACAGUCCGACGAUCUGACUUGGGUAUACCAAGUGUAUCAAACAUAGCUUGAACUUCCUGAUAAACUUCACGGUUUUUAUCUAAUUGAGAAUUUUUAUGUUUCUUGUUCUGUAAUAUCUGUGAAGCUUGAAGUUCCAACAGAGGAUUGAGCAUCA
# B17: 42882279_42882399_11055_3pUTR_ENSG00000168172_ENST00000307602|human|control|control (ssRNA)
# RNA: GGGAGUUCUACAGUCCGACGAUCAAGUCUCUCGGUAGACAAGUUGAAAACUUUGCUAUAUAUGAAUGUAAGAAAAUGGCCAAGUUCACUGGGCAUGGUGGCUCACGCCUAUAAUAAUCCCAGCACUUUGGGAGGCUGAGGCGGCAACAGAGGAUUGAGCAUCA
# B18: chr8:38067721:38067722:+_ENSG00000156735_ENST00000287322|hu_hu|motif|central (ssRNA)
# RNA: GGGAGUUCUACAGUCCGACGAUCUUUUUUAAUACUCGGAGGAGUACUUUCAUCUGAAGGUACACAUUCUUCAGGAAGACUGCGGCUUUGAUCUUGAUUGUUGGGAUGGUCACUGGUGGCAUUACCAUACAGCUGAGGCUCAGCCAACAGAGGAUUGAGCAUCA
# B19: chr11:87793471:87793472:-_ENSMUSG00000020483_ENSMUST00000020775|mus_mus|mus_mus_mus_hu_False|1_38 (ssRNA)
# RNA: GGGAGUUCUACAGUCCGACGAUCUGGACUUGAAAAUAAAAGAAUAAGCUGGAUCCCCCACCCCCCCACAUUGUCAACCCUACACGAGAGUUUUGAAUGAUUCAUAAGAAAAUCAGCAGCUCAAACGGCAAUGACCACCCACCCCAACAGAGGAUUGAGCAUCA
# B20: chr11:100452861:100452862:-_ENSMUSG00000014195_ENSMUST00000014339|mus_mus|FALSE|FALSE (ssRNA)
# RNA: GGGAGUUCUACAGUCCGACGAUCCAUUCGUAAAAUGUCACUGGCCACAAACUGUGCUUCUGGGUAUCGACCAAGCAUUGCUAAACAUUCUGCUUUGAGAAUUUUGAAUCGAUGGCAGGCAGGGGCAAAUUCUAGGGCACGGUCCAACAGAGGAUUGAGCAUCA
# B21: chr15:88994910:88994911:-_ENSMUSG00000036606_ENSMUST00000109331|mus_hu|FALSE|FALSE (ssRNA)
# RNA: GGGAGUUCUACAGUCCGACGAUCGUUCUCCUCCAGGCUCAUGGCCUGGCGGCAGUCGUAGAAGGGGUACUGGUAGGACGUGAGGAAGAUGUUGCCUCGUCUAAGGAGGAGCUGGAUGGUCACGGCCACGUGGUCCUGGCCUGGCAACAGAGGAUUGAGCAUCA
# B22: 34637268_34637388_314_CDS_ENSG00000147955_ENST00000277010|human|control|control (ssRNA)
# RNA: GGGAGUUCUACAGUCCGACGAUCCAGCGAGGCGUGCAGAAGGCACAUGGCGCCCAUCCAGCCACCCGCAUUCACGAACACCCACUGCAGCUCCUCGUCGGGCAGCACGUGGCCUGGGUGCAGCCGCCGCAGCUCCACGAUCAGCAACAGAGGAUUGAGCAUCA
# Molecular target: T1, UNK ZnF1-3
# Test: nsRBNS (natural sequence RNA bind-n-seq); RBNS binding buffer (assumed for nsRBNS): 25 mM Tris pH 7.5, 150 mM KCl, 3 mM MgCl2, 0.01% Triton X-100, 500 ug/ml BSA, 20 U/ml SUPERase-In, 4 C; UNK is unkempt and MSI1 is Musashi-1; names of the RNAs are library labels; protein concentration not given here; high values mean tight binding
row,Binder,binding signal
1,B1,0.814 enrichment R
2,B2,1.16 enrichment R
3,B3,0.527 enrichment R
4,B4,1.34 enrichment R
5,B5,1.04 enrichment R
6,B6,0.677 enrichment R
7,B7,1.5 enrichment R
8,B8,1.22 enrichment R
9,B9,0.756 enrichment R
10,B10,0.832 enrichment R
11,B11,2.32 enrichment R
12,B12,0.923 enrichment R
13,B13,0.501 enrichment R
14,B14,1.79 enrichment R
15,B15,1.15 enrichment R
16,B16,0.188 enrichment R
17,B17,1.57 enrichment R
18,B18,0.67 enrichment R
19,B19,2.2 enrichment R
20,B20,1.28 enrichment R
21,B21,0.877 enrichment R
22,B22,0.719 enrichment R

# — article PMC12136788
